Our source for the binding values is article PMC3702553.

By UniProt entry, the sequences of proteins in these tests, tags left out. Where a name states a change or a piece, a line headed by the entry shows the natural chain unless it says otherwise. Chains listed by the source or under a name are the forms on record and can include a tag or linker.
UniProt Q9Y5X1: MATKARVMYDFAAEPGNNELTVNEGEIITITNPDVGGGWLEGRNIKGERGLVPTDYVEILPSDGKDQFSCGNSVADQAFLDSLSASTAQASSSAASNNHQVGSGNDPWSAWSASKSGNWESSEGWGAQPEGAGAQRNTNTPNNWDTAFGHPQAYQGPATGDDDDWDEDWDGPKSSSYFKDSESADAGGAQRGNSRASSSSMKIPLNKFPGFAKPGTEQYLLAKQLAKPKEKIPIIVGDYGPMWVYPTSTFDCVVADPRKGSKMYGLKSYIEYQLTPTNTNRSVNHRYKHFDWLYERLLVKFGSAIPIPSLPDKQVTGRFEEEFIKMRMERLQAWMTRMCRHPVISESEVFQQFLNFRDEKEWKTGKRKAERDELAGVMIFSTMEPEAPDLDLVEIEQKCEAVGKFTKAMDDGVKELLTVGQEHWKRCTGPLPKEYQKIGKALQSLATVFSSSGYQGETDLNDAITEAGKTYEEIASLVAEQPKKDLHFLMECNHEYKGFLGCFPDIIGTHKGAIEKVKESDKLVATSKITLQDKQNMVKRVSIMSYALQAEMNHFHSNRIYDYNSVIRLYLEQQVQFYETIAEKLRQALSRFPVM
GST-SNX9 LC1 mutant (107PWSAW to 107PSSAS) (Q9Y5X1, form named): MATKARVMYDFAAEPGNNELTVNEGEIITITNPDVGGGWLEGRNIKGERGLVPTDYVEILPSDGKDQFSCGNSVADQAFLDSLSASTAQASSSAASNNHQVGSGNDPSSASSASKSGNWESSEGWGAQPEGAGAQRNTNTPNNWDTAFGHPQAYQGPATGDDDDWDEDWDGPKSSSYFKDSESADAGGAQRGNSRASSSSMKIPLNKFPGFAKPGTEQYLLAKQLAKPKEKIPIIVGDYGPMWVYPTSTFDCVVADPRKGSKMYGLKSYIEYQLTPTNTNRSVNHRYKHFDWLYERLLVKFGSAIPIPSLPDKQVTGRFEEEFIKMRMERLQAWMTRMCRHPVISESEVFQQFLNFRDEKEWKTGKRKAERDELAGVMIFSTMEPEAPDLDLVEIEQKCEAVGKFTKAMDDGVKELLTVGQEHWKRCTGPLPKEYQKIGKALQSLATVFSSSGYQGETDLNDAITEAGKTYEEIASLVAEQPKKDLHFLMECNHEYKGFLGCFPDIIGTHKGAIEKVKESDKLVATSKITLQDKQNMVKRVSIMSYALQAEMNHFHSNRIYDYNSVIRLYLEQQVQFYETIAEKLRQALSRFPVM
GST-SNX9 LC2W1 mutant (164DWDEDW to 164DSDEDW) (Q9Y5X1, form named): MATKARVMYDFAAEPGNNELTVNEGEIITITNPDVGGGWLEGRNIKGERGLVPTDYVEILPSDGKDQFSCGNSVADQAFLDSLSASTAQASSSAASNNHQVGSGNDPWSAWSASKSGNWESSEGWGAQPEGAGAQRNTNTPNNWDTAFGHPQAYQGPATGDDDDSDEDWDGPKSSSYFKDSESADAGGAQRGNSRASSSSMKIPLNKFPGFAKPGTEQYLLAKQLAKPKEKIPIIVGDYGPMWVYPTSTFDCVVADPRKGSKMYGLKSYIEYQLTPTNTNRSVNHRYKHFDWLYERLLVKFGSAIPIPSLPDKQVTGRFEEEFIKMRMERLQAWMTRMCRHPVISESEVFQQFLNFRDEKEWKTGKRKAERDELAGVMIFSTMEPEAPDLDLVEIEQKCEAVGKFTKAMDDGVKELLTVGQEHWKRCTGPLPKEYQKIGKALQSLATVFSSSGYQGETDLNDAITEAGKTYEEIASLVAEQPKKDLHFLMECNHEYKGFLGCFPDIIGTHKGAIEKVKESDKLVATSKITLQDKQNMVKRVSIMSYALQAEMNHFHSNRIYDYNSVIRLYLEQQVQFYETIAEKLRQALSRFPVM
GST-SNX9 LC2 mutant (164DWDEDW to 164DSDEDS) (Q9Y5X1, form named): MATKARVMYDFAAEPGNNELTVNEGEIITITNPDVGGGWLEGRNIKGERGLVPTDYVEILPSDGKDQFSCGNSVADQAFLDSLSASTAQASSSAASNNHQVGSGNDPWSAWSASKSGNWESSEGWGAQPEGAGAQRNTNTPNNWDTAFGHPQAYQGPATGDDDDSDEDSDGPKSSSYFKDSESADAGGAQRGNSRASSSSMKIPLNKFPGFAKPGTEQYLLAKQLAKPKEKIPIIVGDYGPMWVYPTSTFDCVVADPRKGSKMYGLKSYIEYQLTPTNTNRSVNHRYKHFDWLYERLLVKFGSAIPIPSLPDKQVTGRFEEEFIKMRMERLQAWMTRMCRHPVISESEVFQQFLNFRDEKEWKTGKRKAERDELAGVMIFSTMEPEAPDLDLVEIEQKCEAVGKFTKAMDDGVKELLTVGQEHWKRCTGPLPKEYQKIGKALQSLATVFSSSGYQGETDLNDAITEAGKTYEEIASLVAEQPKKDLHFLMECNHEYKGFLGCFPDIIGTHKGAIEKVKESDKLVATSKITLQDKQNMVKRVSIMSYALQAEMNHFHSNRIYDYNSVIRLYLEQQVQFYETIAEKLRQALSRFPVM
GST-SNX9 LC1W1 mutant (107PWSAW to 107PSSAW) (Q9Y5X1, form named): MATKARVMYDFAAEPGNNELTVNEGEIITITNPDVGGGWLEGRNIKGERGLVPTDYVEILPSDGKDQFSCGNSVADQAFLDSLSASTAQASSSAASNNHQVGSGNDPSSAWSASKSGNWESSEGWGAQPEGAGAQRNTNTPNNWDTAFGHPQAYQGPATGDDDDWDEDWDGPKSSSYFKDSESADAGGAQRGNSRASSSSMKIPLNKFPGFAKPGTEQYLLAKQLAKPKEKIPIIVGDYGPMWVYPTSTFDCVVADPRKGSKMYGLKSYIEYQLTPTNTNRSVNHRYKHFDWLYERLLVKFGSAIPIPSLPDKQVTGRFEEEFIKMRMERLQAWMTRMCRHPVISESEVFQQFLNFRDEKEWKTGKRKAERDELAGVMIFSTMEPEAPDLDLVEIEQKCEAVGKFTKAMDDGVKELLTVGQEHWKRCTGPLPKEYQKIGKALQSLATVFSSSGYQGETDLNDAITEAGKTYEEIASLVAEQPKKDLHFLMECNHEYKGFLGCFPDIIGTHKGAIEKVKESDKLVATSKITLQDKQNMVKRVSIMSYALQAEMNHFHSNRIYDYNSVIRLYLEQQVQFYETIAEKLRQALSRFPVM
UniProt Q00610: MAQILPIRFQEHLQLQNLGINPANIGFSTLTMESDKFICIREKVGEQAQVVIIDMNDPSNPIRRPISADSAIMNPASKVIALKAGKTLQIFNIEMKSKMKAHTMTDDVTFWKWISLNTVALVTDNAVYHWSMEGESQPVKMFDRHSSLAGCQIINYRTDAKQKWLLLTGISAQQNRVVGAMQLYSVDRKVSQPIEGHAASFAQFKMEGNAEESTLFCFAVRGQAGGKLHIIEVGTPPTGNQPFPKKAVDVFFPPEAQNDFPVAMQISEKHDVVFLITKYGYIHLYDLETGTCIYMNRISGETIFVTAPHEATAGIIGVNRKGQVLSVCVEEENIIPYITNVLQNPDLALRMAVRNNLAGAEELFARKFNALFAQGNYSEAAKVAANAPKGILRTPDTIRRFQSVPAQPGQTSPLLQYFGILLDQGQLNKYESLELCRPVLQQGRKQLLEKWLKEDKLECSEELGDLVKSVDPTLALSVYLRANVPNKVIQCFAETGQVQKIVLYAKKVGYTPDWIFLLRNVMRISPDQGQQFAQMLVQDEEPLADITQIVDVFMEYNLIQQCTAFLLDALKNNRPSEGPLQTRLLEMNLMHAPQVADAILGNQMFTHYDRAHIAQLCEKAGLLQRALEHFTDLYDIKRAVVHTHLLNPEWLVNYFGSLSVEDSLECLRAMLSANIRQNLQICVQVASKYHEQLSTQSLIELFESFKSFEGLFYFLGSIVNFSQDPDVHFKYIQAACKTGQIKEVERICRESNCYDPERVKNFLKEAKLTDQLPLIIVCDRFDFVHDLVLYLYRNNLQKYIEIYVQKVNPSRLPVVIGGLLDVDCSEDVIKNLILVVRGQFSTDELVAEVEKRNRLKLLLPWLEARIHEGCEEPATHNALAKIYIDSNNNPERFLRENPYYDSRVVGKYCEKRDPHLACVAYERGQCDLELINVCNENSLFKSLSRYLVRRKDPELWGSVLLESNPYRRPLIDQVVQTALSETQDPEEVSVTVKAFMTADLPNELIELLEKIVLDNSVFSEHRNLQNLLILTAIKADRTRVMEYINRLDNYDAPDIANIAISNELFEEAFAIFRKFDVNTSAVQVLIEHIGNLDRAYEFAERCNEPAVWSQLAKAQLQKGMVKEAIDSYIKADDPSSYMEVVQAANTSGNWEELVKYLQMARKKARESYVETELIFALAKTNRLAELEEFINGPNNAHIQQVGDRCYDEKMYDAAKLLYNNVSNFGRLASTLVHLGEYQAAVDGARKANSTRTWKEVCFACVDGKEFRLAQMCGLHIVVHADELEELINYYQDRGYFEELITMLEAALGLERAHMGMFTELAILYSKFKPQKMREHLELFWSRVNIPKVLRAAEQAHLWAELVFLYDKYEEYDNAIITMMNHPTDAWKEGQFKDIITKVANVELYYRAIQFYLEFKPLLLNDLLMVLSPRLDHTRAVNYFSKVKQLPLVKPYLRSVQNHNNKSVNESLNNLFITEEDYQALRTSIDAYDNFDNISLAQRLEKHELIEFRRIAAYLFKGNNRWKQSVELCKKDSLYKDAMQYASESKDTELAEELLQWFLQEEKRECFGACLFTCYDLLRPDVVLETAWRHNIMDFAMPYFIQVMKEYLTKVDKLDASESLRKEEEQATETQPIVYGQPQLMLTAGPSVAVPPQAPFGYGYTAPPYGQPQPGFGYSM

Results are given in words; binding and its absence hold for the method and conditions named. Binding seen in cells or lysates may run through a third protein. Some results given as binding are weak or reduced against the parent protein; the word gives no strength.

Assay in all cases: pull-down; GST-SNX9 (wild type or LC mutants) bound to GSH-Sepharose beads incubated with 2 mg of lysate of asynchronously growing HeLa cells for 1 h at 4°C; lysis buffer 25 mM Tris-HCl pH 7.4, 150 mM NaCl, 1 mM EDTA, 1 mM EGTA, 1% Triton X-100; bound proteins immunoblotted; only the target …
Assay [1] has as its target GST-SNX9 LC1 mutant (107PWSAW to 107PSSAS) (UniProt Q9Y5X1).
Assay [2] addresses full length wild-type GST-SNX9 (sorting nexin 9) (UniProt Q9Y5X1).
In assay [3] the target is GST-SNX9 LC2W1 mutant (164DWDEDW to 164DSDEDW) (UniProt Q9Y5X1).
For assay [4], the target named is GST-SNX9 LC2 mutant (164DWDEDW to 164DSDEDS) (UniProt Q9Y5X1).
Assay [5] deals with GST-SNX9 LC1W1 mutant (107PWSAW to 107PSSAW) (UniProt Q9Y5X1).

As for “clathrin heavy chain (CHC) (from UniProt Q00610 1-1675)”, the binding entry in assay [1] was “no binding”; in assay [2], “binds”; in assay [3], “no binding”; in assay [4], “no binding”; in assay [5] it was “no binding”.
